By IC50 is meant the dose at which the fit gives 50% viability; a fit beyond the top or the lowest dose is shown as a bound at that dose. AUC is the area under the same curve over the 256-fold range up to the top dose, as a fraction; it is 1 without any effect and falls as sensitivity rises. For part of these data: A top dose marked as inferred was calculated from the reported fits. For part of these data: An entry number marks a drug with two screens in the source, which often give different values.
Assays:
Assay in all cases: Viability of human cancer cell lines after 72 h of drug (GDSC screen)
[1] = compound: O=C(NC1CC1)c1cccc(-c2ccc3c(NC(=O)C4CC4)n[nH]c3c2)c1 [XMD13-2]; conditions: top dose 10.24 µM; top dose inferred
Description: (§1)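 Human cancer cell lines in 384-well plates, medium with 10% serum, drug for 72 h over a 256-fold dose range (nine 2-fold or five 4-fold steps up to the top dose). Adherent lines were fixed and stained with the nucleic acid dye Syto60, suspension lines read with resazurin; signal relative to control wells, capped at 0 and 100%. One two-parameter sigmoid per drug and line, fitted in a mixed model over all curves with the slope shared within a line.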

[2] = compound: CN(c1ncccc1CNc1nc(Nc2ccc3c(c2)CC(=O)N3)ncc1C(F)(F)F)S(C)(=O)=O [PF-562271]; conditions: top dose 2.56 µM; top dose inferred
Description: as §1

[3] = compound: CC1(C)CC(=O)c2c(C(F)(F)F)nn(-c3ccc(C(N)=O)c(N[C@H]4CC[C@H](O)CC4)c3)c2C1 [SNX-2112]; conditions: top dose 2.56 µM
Description: as §1

[4] = compound: CC[C@]1(O)C[C@@H]2CN(CCc3c([nH]c4ccccc34)[C@@](C(=O)OC)(c3cc4c(cc3OC)N(C)[C@H]3[C@@](O)(C(=O)OC)[C@H](OC(C)=O)[C@]5(CC)C=CCN6CC[C@]43[C@@H]65)C2)C1 [Vinblastine]; conditions: top dose 0.1 µM; top dose inferred
Description: as §1

[5] = compound: CN(C)C/C=C/C(=O)Nc1cc2c(Nc3ccc(F)c(Cl)c3)ncnc2cc1O[C@H]1CCOC1 [Afatinib]
Description: as §1

[6] = top dose 0.5 µM, screen: GDSC drug entry 1032
[7] = top dose 10 µM, screen: GDSC drug entry 1377, top dose inferred

Row | Cell Line | AUC [1] | IC50 [1] [nM] | AUC [2] | IC50 [2] [nM] | AUC [3] | IC50 [3] [nM] | AUC [4] | IC50 [4] [nM] | AUC [5, 6] | IC50 [5, 6] [nM] | AUC [5, 7] | IC50 [5, 7] [nM]
1 | OVISE (ovary, adherent) | 0.896 | > 10200 | 0.91 | > 2560 | 0.837 | > 2560 | 0.556 | 9.34 | 0.738 | 191 | 0.763 | 4770
2 | SK-PN-DW (Ewing sarcoma, adherent) | 0.86 | 9130 | 0.892 | > 2560 | 0.574 | 256 | 0.454 | 4.67 | 0.986 | > 500 | 0.952 | > 10000
3 | MC-CAR (haematopoietic neoplasm, suspension) | 0.821 | 5140 | 0.95 | > 2560 | 0.214 | 26.2 | 0.492 | 5.96 | 0.989 | > 500 | 0.974 | > 10000
4 | LAN-6 (neuroblastoma, adherent) | 0.97 | > 10200 | 0.956 | > 2560 | 0.882 | > 2560 | 0.767 | 44.2 | 0.984 | > 500 | 0.979 | > 10000
5 | KYSE-50 (oesophagus, adherent) | 0.929 | > 10200 | 0.843 | 1590 | 0.657 | 418 | 0.655 | 16.1 | 0.922 | > 500 | 0.934 | > 10000
6 | NMC-G1 (glioma, adherent) | 0.879 | > 10200 | 0.905 | > 2560 | 0.738 | 912 | 0.544 |  | 0.956 | > 500 | 0.97 | > 10000
7 | A388 (skin, adherent) | 0.938 | > 10200 | 0.959 | > 2560 | 0.642 | 419 | 0.569 | 9.96 | 0.815 | 327 | 0.879 | > 10000
8 | IHH-4 (thyroid, semi-adherent) | 0.954 | > 10200 | 0.891 | 1940 | 0.992 | > 2560 | 0.331 | 2.36 | 0.991 | > 500 | 0.965 | > 10000
9 | LS-1034 (large intestine, adherent) | 0.891 | > 10200 | 0.962 | > 2560 | 0.497 | 157 | 0.952 | > 100 | 0.948 | > 500 | 0.978 | > 10000
10 | HCC2218 (breast, suspension) | 0.869 | > 10200 | 0.968 | > 2560 | 0.737 | 919 | 0.914 | > 100 | 0.543 | 42.2 | 0.368 | 245
11 | SW684 (fibrosarcoma, adherent) | 0.976 | > 10200 | 0.882 | > 2560 | 0.982 | > 2560 | 0.797 | 75 | 0.95 | > 500 | 0.978 | > 10000
12 | HUTU-80 (digestive system, adherent) | 0.822 | 4670 | 0.81 | 1070 | 0.216 | 28.6 | 0.603 | 11.3 | 0.97 | > 500 | 0.991 | > 10000
13 | 22RV1 (prostate, adherent) | 0.898 | > 10200 | 0.903 | > 2560 | 0.313 | 41.7 | 0.601 | 12.7 | 0.981 | > 500 | 0.954 | > 10000
14 | SK-N-SH (neuroblastoma, adherent) | 0.976 | > 10200 | 0.915 | > 2560 | 0.685 | 523 | 0.785 | 42.3 | 0.987 | > 500 | 0.961 | > 10000
15 | PA-1 (ovary, adherent) | 0.872 | 6320 | 0.859 | 1430 | 0.239 | 35 | 0.505 | 6.43 | 0.992 | > 500 |  | 
16 | RF-48 (stomach, adherent) | 0.87 | > 10200 | 0.926 | > 2560 | 0.307 | 42.7 | 0.756 | 37.9 | 0.981 | > 500 | 0.983 | > 10000
17 | BICR78 (head and neck, adherent) | 0.948 | > 10200 | 0.944 | > 2560 | 0.858 | > 2560 | 0.47 | 5.12 | 0.455 | 23.1 | 0.711 | 2730
18 | SIMA (neuroblastoma, adherent) | 0.92 | > 10200 | 0.935 | > 2560 | 0.752 | 951 | 0.913 | > 100 | 0.983 | > 500 | 0.984 | > 10000
19 | D-263MG (glioma, adherent) | 0.97 | > 10200 | 0.957 | > 2560 | 0.809 | 1690 | 0.54 | 8.23 | 0.976 | > 500 | 0.962 | > 10000
20 | A498 (kidney, adherent) | 0.969 | > 10200 | 0.916 | > 2560 | 0.962 | > 2560 | 0.523 | 7.44 | 0.79 | 361 | 0.965 | > 10000
21 | EW-24 (Ewing sarcoma, semi-adherent) | 0.992 | > 10200 | 0.992 | > 2560 | 0.837 | 1430 | 0.925 | > 100 | 0.99 | > 500 | 0.991 | > 10000
22 | TOV-21G (ovary, adherent) | 0.985 | > 10200 | 0.985 | > 2560 | 0.894 | > 2560 | 0.451 | 4.54 | 0.897 | > 500 | 0.88 | > 10000
